According to the supplement of paper PMC8728848:
The list shows a part of the results.

Legend:
Assay in all cases: glycan array binding signal (z-score within array); higher = stronger binding
Conditions in all cases: glycan notation: IUPAC condensed, linker removed
[1] = molecular target: Gal(b1-4)GlcNAc(b1-2)[Gal(b1-4)GlcNAc(b1-6)]Man(a1-6)[GlcNAc(b1-4)][Gal(b1-4)GlcNAc(b1-2)Man(a1-3)]Man(b1-4)GlcNAc(b1-4)GlcNAc
How it was run: (§1)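 Glycan array binding is given as a within-array Z-score, which can be read as non-binding when negative. The arrays, 3228 of them, came from the Consortium for Functional Glycomics database and were retained only where the protein sequence was available. Z-scores were averaged across arrays of the same protein sequence at different concentrations or buffers and across linkers.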

[2] = molecular target: Gal(b1-4)GlcNAc(b1-2)[Gal(b1-4)GlcNAc(b1-6)]Man(a1-6)[GlcNAc(b1-4)][Gal(b1-4)GlcNAc(b1-2)[Gal(b1-4)GlcNAc(b1-4)]Man(a1-3)]Man(b1-4)GlcNAc(b1-4)[Fuc(a1-6)]GlcNAc
How it was run: as §1

[3] = molecular target: Gal(b1-4)GlcNAc(b1-3)Gal(b1-3)GalNAc
How it was run: as §1

[4] = molecular target: Gal(b1-4)GlcNAc(b1-3)Gal(b1-3)GlcNAc
How it was run: as §1

[5] = molecular target: Gal(b1-4)GlcNAc(b1-3)Gal(b1-4)Glc
How it was run: as §1

[6] = molecular target: Gal(b1-4)GlcNAc(b1-3)Gal(b1-4)GlcNAc
How it was run: as §1

[7] = molecular target: Gal(b1-4)GlcNAc(b1-3)Gal(b1-4)GlcNAc(b1-2)Man(a1-3)[Gal(b1-4)GlcNAc(b1-3)Gal(b1-4)GlcNAc(b1-2)Man(a1-6)]Man(b1-4)GlcNAc(b1-4)GlcNAc
How it was run: as §1

[8] = molecular target: Gal(b1-4)GlcNAc(b1-3)Gal(b1-4)GlcNAc(b1-2)Man(a1-3)[Gal(b1-4)GlcNAc(b1-3)Gal(b1-4)GlcNAc(b1-2)Man(a1-6)]Man(b1-4)GlcNAc(b1-4)[Fuc(a1-6)]GlcNAc
How it was run: as §1

[9] = molecular target: Gal(b1-4)GlcNAc(b1-3)Gal(b1-4)GlcNAc(b1-2)[Gal(b1-4)GlcNAc(b1-3)Gal(b1-4)GlcNAc(b1-6)]Man(a1-6)[Gal(b1-4)GlcNAc(b1-3)Gal(b1-4)GlcNAc(b1-2)Man(a1-3)]Man(b1-4)GlcNAc(b1-4)GlcNAc
How it was run: as §1

[10] = molecular target: Gal(b1-4)GlcNAc(b1-3)Gal(b1-4)GlcNAc(b1-2)[Gal(b1-4)GlcNAc(b1-3)Gal(b1-4)GlcNAc(b1-6)]Man(a1-6)[Gal(b1-4)GlcNAc(b1-3)Gal(b1-4)GlcNAc(b1-2)Man(a1-3)]Man(b1-4)GlcNAc(b1-4)[Fuc(a1-6)]GlcNAc
How it was run: as §1

[11] = molecular target: Gal(b1-4)GlcNAc(b1-3)Gal(b1-4)GlcNAc(b1-3)Gal(b1-4)GlcNAc
How it was run: as §1

[12] = molecular target: Gal(b1-4)GlcNAc(b1-3)Gal(b1-4)GlcNAc(b1-3)Gal(b1-4)GlcNAc(b1-2)Man(a1-3)[Gal(b1-4)GlcNAc(b1-3)Gal(b1-4)GlcNAc(b1-3)Gal(b1-4)GlcNAc(b1-2)Man(a1-6)]Man(b1-4)GlcNAc(b1-4)GlcNAc
How it was run: as §1

[13] = molecular target: Gal(b1-4)GlcNAc(b1-3)Gal(b1-4)GlcNAc(b1-3)Gal(b1-4)GlcNAc(b1-2)Man(a1-3)[Gal(b1-4)GlcNAc(b1-3)Gal(b1-4)GlcNAc(b1-3)Gal(b1-4)GlcNAc(b1-2)Man(a1-6)]Man(b1-4)GlcNAc(b1-4)[Fuc(a1-6)]GlcNAc
How it was run: as §1

[14] = molecular target: Gal(b1-4)GlcNAc(b1-3)Gal(b1-4)GlcNAc(b1-3)Gal(b1-4)GlcNAc(b1-2)[Gal(b1-4)GlcNAc(b1-3)Gal(b1-4)GlcNAc(b1-3)Gal(b1-4)GlcNAc(b1-6)]Man(a1-6)[Gal(b1-4)GlcNAc(b1-3)Gal(b1-4)GlcNAc(b1-3)Gal(b1-4)GlcNAc(b1-2)Man(a1-3)]Man(b1-4)GlcNAc(b1-4)[Fuc(a1-6)]GlcNAc
How it was run: as §1

[15] = molecular target: Gal(b1-4)GlcNAc(b1-3)Gal(b1-4)GlcNAc(b1-3)Gal(b1-4)GlcNAc(b1-3)Gal(b1-4)GlcNAc(b1-2)Man(a1-3)[Gal(b1-4)GlcNAc(b1-3)Gal(b1-4)GlcNAc(b1-3)Gal(b1-4)GlcNAc(b1-3)Gal(b1-4)GlcNAc(b1-2)Man(a1-6)]Man(b1-4)GlcNAc(b1-4)GlcNAc
How it was run: as §1

[16] = molecular target: Gal(b1-4)GlcNAc(b1-3)Gal(b1-4)GlcNAc(b1-3)Gal(b1-4)GlcNAc(b1-3)Gal(b1-4)GlcNAc(b1-2)Man(a1-3)[Gal(b1-4)GlcNAc(b1-3)Gal(b1-4)GlcNAc(b1-3)Gal(b1-4)GlcNAc(b1-3)Gal(b1-4)GlcNAc(b1-2)Man(a1-6)]Man(b1-4)GlcNAc(b1-4)[Fuc(a1-6)]GlcNAc
How it was run: as §1

[17] = molecular target: Gal(b1-4)GlcNAc(b1-3)Gal(b1-4)GlcNAc(b1-3)Gal(b1-4)GlcNAc(b1-3)Gal(b1-4)GlcNAc(b1-2)[Gal(b1-4)GlcNAc(b1-3)Gal(b1-4)GlcNAc(b1-3)Gal(b1-4)GlcNAc(b1-3)Gal(b1-4)GlcNAc(b1-6)]Man(a1-6)[Gal(b1-4)GlcNAc(b1-3)Gal(b1-4)GlcNAc(b1-3)Gal(b1-4)GlcNAc(b1-3)Gal(b1-4)GlcNAc(b1-2)Man(a1-3)]Man(b1-4)GlcNAc(b1-4)[Fuc(a1-6)]GlcNAc
How it was run: as §1

[18] = molecular target: Gal(b1-4)GlcNAc(b1-3)Gal(b1-4)GlcNAc(b1-3)Gal(b1-4)GlcNAc(b1-3)Gal(b1-4)GlcNAc(b1-3)Gal(b1-4)GlcNAc(b1-2)Man(a1-3)[Gal(b1-4)GlcNAc(b1-3)Gal(b1-4)GlcNAc(b1-3)Gal(b1-4)GlcNAc(b1-3)Gal(b1-4)GlcNAc(b1-3)Gal(b1-4)GlcNAc(b1-2)Man(a1-6)]Man(b1-4)GlcNAc(b1-4)GlcNAc
How it was run: as §1

[19] = molecular target: Gal(b1-4)GlcNAc(b1-3)Gal(b1-4)GlcNAc(b1-3)Gal(b1-4)GlcNAc(b1-3)Gal(b1-4)GlcNAc(b1-3)Gal(b1-4)GlcNAc(b1-2)Man(a1-3)[Gal(b1-4)GlcNAc(b1-3)Gal(b1-4)GlcNAc(b1-3)Gal(b1-4)GlcNAc(b1-3)Gal(b1-4)GlcNAc(b1-3)Gal(b1-4)GlcNAc(b1-2)Man(a1-6)]Man(b1-4)GlcNAc(b1-4)[Fuc(a1-6)]GlcNAc
How it was run: as §1

[20] = molecular target: Gal(b1-4)GlcNAc(b1-3)Gal(b1-4)GlcNAc(b1-3)Gal(b1-4)GlcNAc(b1-3)Gal(b1-4)GlcNAc(b1-3)Gal(b1-4)GlcNAc(b1-2)[Gal(b1-4)GlcNAc(b1-3)Gal(b1-4)GlcNAc(b1-3)Gal(b1-4)GlcNAc(b1-3)Gal(b1-4)GlcNAc(b1-3)Gal(b1-4)GlcNAc(b1-6)]Man(a1-6)[Gal(b1-4)GlcNAc(b1-3)Gal(b1-4)GlcNAc(b1-3)Gal(b1-4)GlcNAc(b1-3)Gal(b1-4)GlcNAc(b1-3)Gal(b1-4)GlcNAc(b1-2)Man(a1-3)]Man(b1-4)GlcNAc(b1-4)[Fuc(a1-6)]GlcNAc
How it was run: as §1

[21] = molecular target: Gal(b1-4)GlcNAc(b1-3)Gal(b1-4)GlcNAc(b1-3)Gal(b1-4)GlcNAc(b1-3)Gal(b1-4)GlcNAc(b1-3)Gal(b1-4)GlcNAc(b1-3)Gal(b1-4)GlcNAc(b1-2)Man(a1-3)[Gal(b1-4)GlcNAc(b1-3)Gal(b1-4)GlcNAc(b1-3)Gal(b1-4)GlcNAc(b1-3)Gal(b1-4)GlcNAc(b1-3)Gal(b1-4)GlcNAc(b1-3)Gal(b1-4)GlcNAc(b1-2)Man(a1-6)]Man(b1-4)GlcNAc(b1-4)GlcNAc
How it was run: as §1

[22] = molecular target: Gal(b1-4)GlcNAc(b1-3)Gal(b1-4)GlcNAc(b1-3)GalNAc
How it was run: as §1

[23] = molecular target: Gal(b1-4)GlcNAc(b1-3)Gal(b1-4)GlcNAc(b1-3)[Gal(b1-4)GlcNAc(b1-3)Gal(b1-4)GlcNAc(b1-6)]GalNAc
How it was run: as §1

B1: GNL (Galanthus nivalis) (protein)
chain: MGHHHHHHHHYGTLENGHWLMVGMSIFSKDRTVELRMQDDGKLAIYYNDHCAWQSTAQQVNNAKGAVMQGDGNFCIYDKNGKATWHTNTAAPSGDSHTFVSVQDDGNLVLYKNNGATPIWSSKSNK
glycan array binding signal (z-score) [1]: -0.29
glycan array binding signal (z-score) [2]: -0.194
glycan array binding signal (z-score) [3]: -0.183
glycan array binding signal (z-score) [4]: -0.261
glycan array binding signal (z-score) [5]: -0.197
glycan array binding signal (z-score) [6]: -0.201
glycan array binding signal (z-score) [7]: 0.418
glycan array binding signal (z-score) [8]: 1.33
glycan array binding signal (z-score) [9]: -0.146
glycan array binding signal (z-score) [10]: -0.241
glycan array binding signal (z-score) [11]: -0.242
glycan array binding signal (z-score) [12]: 0.206
glycan array binding signal (z-score) [13]: 0.811
glycan array binding signal (z-score) [14]: -0.2
glycan array binding signal (z-score) [15]: 0.086
glycan array binding signal (z-score) [16]: 0.206
glycan array binding signal (z-score) [17]: -0.059
glycan array binding signal (z-score) [18]: 0.054
glycan array binding signal (z-score) [19]: 0.088
glycan array binding signal (z-score) [20]: -0.148
glycan array binding signal (z-score) [21]: 0.001
glycan array binding signal (z-score) [22]: -0.23
glycan array binding signal (z-score) [23]: -0.222
